# Assay results: PMC5892938
# The list shows a part of the results. At the low end of the ranking, values are background and their order means little.
# Target: GST-SBP-SLBP (stem-loop binding protein) (UniProt Q14493)
# Test: targeted RNA Bind-n-Seq;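 also: DESeq read counts versus GST-SBP nonspecific binding control pulldown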
# Details: RBNS binding buffer: 25 mM Tris pH 7.5, 150 mM KCl, 3 mM MgCl2, 0.1% Tween, 0.5 mg/mL BSA, 1 mM DTT; 27 nM protein, 750 pM RNA pool; temperature not stated; high values mean tight binding
row,Sequence,binding signal (log2 fold change)
1,GGUCACGUCUCAAUCAACUCAUUCGCAGGAGUUUUCUCCUGGUAUCUCAACAGCUCGCAGUCAAG,-0.0537
2,GGUCACGUCUCAAUCAACUCAUCUCCAGGAGUUUUCUCCUGCUUUUUCAACAGCUCGCAGUCAAG,0.0146
3,GGUCACGUCUCAAUCAACUCAUCGUCAGGAGUUUGCUCCUGCUUAUUCAACAGCUCGCAGUCAAG,0.0208
4,GGUCACGUCUCAAUCAACUCAUUUCCAGGAGUUUUCUCCUGCUUACUCAACAGCUCGCAGUCAAG,0.0953
5,GGUCACGUCUCAAUCAACUCAAUCUCAGGAGUUUGCUCCUGCUAUUUCAACAGCUCGCAGUCAAG,0.199
6,GGUCACGUCUCAAUCAACUCAUCCCCAGGAGUUUACUCCUGCAAACUCAACAGCUCGCAGUCAAG,0.0741
7,GGUCACGUCUCAAUCAACUCUAUCUCCAGGGAAAGCCCUGGCUUUUUCAACAGCUCGCAGUCAAG,-0.529
8,GGUCACGUCUCAAUCAACUCAUCCUCAGGAGUUUACUCCUGCAAUGUCAACAGCUCGCAGUCAAG,-0.055
9,GGUCACGUCUCAAUCAACUCAUCUUCCAGGGAAAACCCUGGUAUAUUCAACAGCUCGCAGUCAAG,-0.0205
10,GGUCACGUCUCAAUCAACUCUUCGUCCAGGGAAAGCCCUGGCUAAUUCAACAGCUCGCAGUCAAG,0.0315
11,GGUCACGUCUCAAUCAACUCUUCCCCCAGGGAAACCCCUGGCAAUUUCAACAGCUCGCAGUCAAG,0.143
12,GGUCACGUCUCAAUCAACUCAUUUUCAGGAGUUUCCUCCUGUAUACUCAACAGCUCGCAGUCAAG,0.000341
13,GGUCACGUCUCAAUCAACUCAUCGUCAGGAGUUUACUCCUGUAUUUUCAACAGCUCGCAGUCAAG,-0.00641
14,GGUCACGUCUCAAUCAACUCAAAAGAGGGGGGGAAAACCCCUUUACCCUCACAAUCAACAGCUCGCAGUCAAG,-0.107
15,GGUCACGUCUCAAUCAACUCACUAGAGGGGGGGAAAACCCCUUUGCCCUCACAAUCAACAGCUCGCAGUCAAG,0.268
16,GGUCACGUCUCAAUCAACUCUUUUCCCAGGGAAACCCCUGGCUUAUUCAACAGCUCGCAGUCAAG,0.0598
17,GGUCACGUCUCAAUCAACUCAAUUUCAGGAGUUUCCUCCUGUAUAUUCAACAGCUCGCAGUCAAG,-0.00968
18,GGUCACGUCUCAAUCAACUCUCCCGAGGGGGGGAAAACCCCUUUACCCUCAUCGUCAACAGCUCGCAGUCAAG,-0.185
19,GGUCACGUCUCAAUCAACUCUACUCCCAGGGAAACCCCUGGCUUAUUCAACAGCUCGCAGUCAAG,-0.137
20,GGUCACGUCUCAAUCAACUCAUCAGAGGGGGGGAAAACCCCUUUACCCUCCAUAUCAACAGCUCGCAGUCAAG,0.0306
21,GGUCACGUCUCAAUCAACUCAUCCCCAGGAGUUUCCUCCUGCAUACUCAACAGCUCGCAGUCAAG,0.149
22,GGUCACGUCUCAAUCAACUCGUCUUCAGGAGUUUUCUCCUGCAUAUUCAACAGCUCGCAGUCAAG,0.0526
23,GGUCACGUCUCAAUCAACUCAUCGUCAGGAGUUUACUCCUGCUUAUUCAACAGCUCGCAGUCAAG,0.197
24,GGUCACGUCUCAAUCAACUCAAUCUCAGGAGUUUACUCCUGCAAAGUCAACAGCUCGCAGUCAAG,0.321

row,Sequence,binding signal (log2 fold change)
1,GGUCACGUCUCAAUCAACUCUAUUUCAGGAGUUUCCUCCUGCAUUCUCAACAGCUCGCAGUCAAG,0.135
2,GGUCACGUCUCAAUCAACUCAUCUUCCAGGGAAAUCCCUGGUUUUUUCAACAGCUCGCAGUCAAG,-0.164
3,GGUCACGUCUCAAUCAACUCUUCAGAGGGGGGGAAAACCCCUUUACCCUCAAUUUCAACAGCUCGCAGUCAAG,-0.148
4,GGUCACGUCUCAAUCAACUCUUUCCCAGGAGUUUCCUCCUGCUUUCUCAACAGCUCGCAGUCAAG,0.0687
5,GGUCACGUCUCAAUCAACUCUUCUCCCAGGGAAAACCCUGGUAUUUUCAACAGCUCGCAGUCAAG,-0.235
6,GGUCACGUCUCAAUCAACUCUCACGAGGGGGGGAAAACCCCUUUACCCUCUACCUCAACAGCUCGCAGUCAAG,0.216
7,GGUCACGUCUCAAUCAACUCAUUUUCAGGAGUUUACUCCUGCUUAUUCAACAGCUCGCAGUCAAG,0.078
8,GGUCACGUCUCAAUCAACUCUAAAGAGGGGGGGAAAACCCCUUUGCCCUCAAAUUCAACAGCUCGCAGUCAAG,-0.065
9,GGUCACGUCUCAAUCAACUCAUCGUCAGGAGUUUCCUCCUGUUAUCUCAACAGCUCGCAGUCAAG,0.0379
10,GGUCACGUCUCAAUCAACUCUAUCCCAGGAGUUUACUCCUGCAUUUUCAACAGCUCGCAGUCAAG,-0.00693
11,GGUCACGUCUCAAUCAACUCUACUCCAGGAGUUUUCUCCUGCUAAUUCAACAGCUCGCAGUCAAG,-0.02
12,GGUCACGUCUCAAUCAACUCAUUUUCCAGGGAAACCCCUGGCAAUCUCAACAGCUCGCAGUCAAG,0.0974
13,GGUCACGUCUCAAUCAACUCUACUCCCAGGGAAAACCCUGGCAUACUCAACAGCUCGCAGUCAAG,0.0528
14,GGUCACGUCUCAAUCAACUCAUUUCCCAGGGAAACCCCUGGUAUUUUCAACAGCUCGCAGUCAAG,-0.0436
15,GGUCACGUCUCAAUCAACUCCUAAGAGGGGGGGAAAACCCCUUUGCCCUCAAUUUCAACAGCUCGCAGUCAAG,-0.372
16,GGUCACGUCUCAAUCAACUCUUCCUCAGGAGUUUCCUCCUGCAAAUUCAACAGCUCGCAGUCAAG,0.0607
17,GGUCACGUCUCAAUCAACUCAAUUUCCAGGGAAACCCCUGGUAUACUCAACAGCUCGCAGUCAAG,-0.133
18,GGUCACGUCUCAAUCAACUCAUCUCCAGGAGUUUCCUCCUGUUUACUCAACAGCUCGCAGUCAAG,0.131
19,GGUCACGUCUCAAUCAACUCAUCUUCAGGAGUUUACUCCUGCAUUUUCAACAGCUCGCAGUCAAG,0.11
20,GGUCACGUCUCAAUCAACUCAUUCUCCAGGGAAAGCCCUGGCUUUCUCAACAGCUCGCAGUCAAG,0.0375
21,GGUCACGUCUCAAUCAACUCUAUUCCAGGAGUUUCCUCCUGCUUUUUCAACAGCUCGCAGUCAAG,-0.0924
22,GGUCACGUCUCAAUCAACUCAACUCCCAGGGAAAGCCCUGGUUAUCUCAACAGCUCGCAGUCAAG,-0.195
23,GGUCACGUCUCAAUCAACUCAAUCUCCAGGGAAAGCCCUGGCUAUGUCAACAGCUCGCAGUCAAG,0.00123
24,GGUCACGUCUCAAUCAACUCUUUCUCCAGGGAAACCCCUGGUUAUCUCAACAGCUCGCAGUCAAG,0.287
